# Data as given in article PMC4336329 (PLoS ONE, 2015).
# The whole screen tested about 310,000 compounds, of which about 2,200 (0.71%) showed an effect of 50% or more. Effects have a minus sign here. Some of the results follow.
# Target: human ether-à-go-go-related gene (hERG) potassium channel (human, UniProt Q12809)
# Experiment: primary screen, population patch clamp on CHO cells stably expressing hERG
# Sequence of human ether-à-go-go-related gene (hERG) potassium channel (Q12809 whole entry, looked up): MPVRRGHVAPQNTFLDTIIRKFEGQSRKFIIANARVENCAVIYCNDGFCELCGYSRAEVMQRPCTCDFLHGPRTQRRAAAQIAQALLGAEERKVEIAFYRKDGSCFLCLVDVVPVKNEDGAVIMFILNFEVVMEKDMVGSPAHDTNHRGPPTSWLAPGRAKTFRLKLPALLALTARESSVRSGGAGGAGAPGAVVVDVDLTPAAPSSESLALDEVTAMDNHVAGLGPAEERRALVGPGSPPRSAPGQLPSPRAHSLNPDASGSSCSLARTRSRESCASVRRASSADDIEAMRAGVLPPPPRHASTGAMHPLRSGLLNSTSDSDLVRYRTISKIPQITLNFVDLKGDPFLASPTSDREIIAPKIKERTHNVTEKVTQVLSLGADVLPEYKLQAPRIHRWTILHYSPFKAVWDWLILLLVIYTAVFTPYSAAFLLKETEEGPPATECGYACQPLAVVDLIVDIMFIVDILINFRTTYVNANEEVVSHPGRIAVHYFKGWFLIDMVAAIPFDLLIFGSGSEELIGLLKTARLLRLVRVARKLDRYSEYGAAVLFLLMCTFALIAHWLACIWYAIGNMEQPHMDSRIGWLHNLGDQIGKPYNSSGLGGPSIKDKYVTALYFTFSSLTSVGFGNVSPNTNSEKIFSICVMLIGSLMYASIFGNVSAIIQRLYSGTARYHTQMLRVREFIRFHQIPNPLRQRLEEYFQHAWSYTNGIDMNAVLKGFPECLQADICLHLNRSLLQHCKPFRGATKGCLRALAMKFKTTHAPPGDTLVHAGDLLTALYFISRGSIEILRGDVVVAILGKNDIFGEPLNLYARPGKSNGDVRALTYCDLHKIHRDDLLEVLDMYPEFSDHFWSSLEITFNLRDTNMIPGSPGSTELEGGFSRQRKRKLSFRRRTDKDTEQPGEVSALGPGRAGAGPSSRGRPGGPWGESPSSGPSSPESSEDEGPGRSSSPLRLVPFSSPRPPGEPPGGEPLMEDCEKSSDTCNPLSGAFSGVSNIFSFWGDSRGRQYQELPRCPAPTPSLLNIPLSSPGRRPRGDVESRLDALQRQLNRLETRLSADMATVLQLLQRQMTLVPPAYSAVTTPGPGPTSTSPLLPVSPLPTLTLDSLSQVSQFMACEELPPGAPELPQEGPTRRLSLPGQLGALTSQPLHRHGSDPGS
row,SMILES,"hERG current change (%, negative = inhibition) at 1uM [%]"
1,COc1cccc(C(=O)NCCS(=O)(=O)NCc2ccc(Cl)cc2)c1,-3.65
2,CCCCc1nc(Cl)c(CO)n1Cc1ccc(-c2ccccc2-c2nnn[n-]2)cc1.[K+],3.74
3,O=C(NCCCN1CCOCC1)c1ccc2c(=O)n(Cc3ccc(Cl)cc3)c(=S)[nH]c2c1,7.13
4,O=c1cc(CSCc2ccc(Cl)cc2)[nH]c(=O)[nH]1,0.0675
5,Cc1ccccc1Nc1nnc(SCC(=O)c2cc3ccccc3o2)s1,5.59
6,Cc1nnc(NC(=O)Nc2ccc(Cl)c(Cl)c2)s1,14.3
7,COc1ccc(S(=O)(=O)Nc2ccccc2C(=O)NCc2ccco2)cc1,-2.83
8,CCc1nnc(NC(=O)C2CCCN2C(=O)Nc2ccc(Cl)cc2)s1 (centres unmarked),8.17
9,COc1cc(/C=C(\C#N)C(=O)NCCc2ccccc2)cc(OC)c1O,19.2
10,COc1ccc(N2C(=O)CC(Sc3nnnn3-c3ccc(F)cc3)C2=O)cc1 (centres unmarked),2.13
11,O=C(Nc1ccc2c(c1)N(S(=O)(=O)c1cccs1)CCC2)c1c(F)cccc1Cl,11.2
12,O=C(Nc1ccccc1)N1CCN(c2nc3ccccc3s2)CC1,-17.4
13,S=C(NCCCc1ccccc1)Nc1ccc(Br)cc1,17.2
14,O=C1c2nc3cc(-c4ccco4)[nH]n3c(=O)c2CN1Cc1ccccc1,10.9
15,COC(=O)CSc1nnc(C)n1-c1cccc(C#N)c1,0.597
16,COc1ccccc1-c1n[nH]c2c1[C@H](C)CC[C@H]2C(C)C,14.4
17,O=C(Nc1ccccn1)N1CCOCC1,13.1
18,Cc1cccc(N(Cc2ccccc2)C(=O)C2CCN(C(=O)c3ccccc3C)CC2)c1,-1.04
19,COc1ccc(C2OCC3(CO2)SC(=O)NC3=O)cc1 (centres unmarked),3.3

row,SMILES,"hERG current change (%, negative = inhibition) at 1uM [%]"
1,CC1(C)SC(=S)N(NC(=O)Nc2cccc3ccccc23)C1N(O)C(=O)Nc1ccccc1 (centres unmarked),7.48
2,CCCn1cc(S(=O)(=O)c2ccccc2)c(=O)c2cc(OC)c(OC)cc21,10.1
3,O=C(c1cc(-c2ccncc2)nc2ccc(Cl)cc12)N1CCN(Cc2ccc3c(c2)OCO3)CC1,14.5
4,Cc1cc(=O)[nH]c(SCC(=O)Nc2ncc(S(=O)(=O)c3ccc([N+](=O)[O-])cc3)s2)n1,14.9
5,CCOc1ccccc1/C=N/Nc1ccnc(=O)[nH]1,16.1
6,CC(C)Cn1nc(C(=O)Nc2cccc(S(=O)(=O)N3CCCC3)c2)c2ccccc2c1=O,8.59
7,Cc1nc2ncnn2c(N2CCN(C(=O)c3cccc(F)c3)CC2)c1Cc1ccccc1,-17.8
8,CCc1ccc(NC(=O)CNCc2ccc(OC)c(OC)c2)cc1.O=C(O)C(=O)O,9.83
9,Cc1ccc(NC(=O)c2cn(CCC#N)nc2-c2cccs2)c([N+](=O)[O-])c1,8.93
10,O=C(NNC(=S)Nc1ccccc1)NNC(=S)Nc1ccccc1,12.1
11,CCc1cccc(C)c1NC(=O)c1cccc(N(C)C)c1,0.591
12,CN1CCN(C(=O)c2ccc(COc3ccc(C(C)(C)C)cc3)o2)CC1,0.586
13,CC(=O)Nc1ccc(S(=O)(=O)NCCC(=O)OCc2csc(CC(=O)Nc3ccccc3C)n2)cc1,13.1
14,CC(=O)OC(C(=O)n1nc(C)cc1C)c1ccccc1 (centres unmarked),6.7
15,CC(CNc1nc2ccc(Cl)cc2n2cnnc12)c1ccccc1 (centres unmarked),17.4
16,CCC1CCCCN1C(=O)COC(=O)c1ccc(Br)o1 (centres unmarked),11.6
17,O=C(/C=C/NCc1ccc(F)cc1)c1ccccc1,5.72
18,Fc1cccc(F)c1CN1CCN(c2ccc(Cl)cc2)CC1,16.7
19,O=C(CSc1ccc(-c2ccc(F)cc2)nn1)N1CCCc2ccccc21,11

row,SMILES,"hERG current change (%, negative = inhibition) at 1uM [%]"
1,COc1cccc(CC(Cc2nc3ccccc3[nH]2)c2nc3ccccc3[nH]2)c1 (centres unmarked),11.2
2,COc1ccc(N2C(=O)C(C)C(Cc3ccc(C)cc3)C2=O)cc1 (centres unmarked),13.9
3,CCOC(=O)c1c(C)[nH]c(C)c1S(=O)(=O)N1c2ccccc2CC1C (centres unmarked),18.2
4,CCCCCOc1ccc(C(=O)NCC2(c3ccccc3)CCOCC2)cc1,-13.5
5,COC(=O)COc1ccc(S(=O)(=O)N2CCCCCC2)cc1C,5.29
6,CCOc1ccc(N(CC(=O)Nc2cccc(Cl)c2)S(=O)(=O)c2c(C)noc2C)cc1,10
7,Cc1onc(-c2ccccc2)c1C(=O)Nc1sccc1C#N,10.8
8,Cc1cc(NC(=O)COC(=O)c2c(Cl)cccc2Cl)no1,-2.04
9,CCCCNc1nnc(SCC(=O)N2CCN(S(=O)(=O)c3ccc4ccccc4c3)CC2)s1,6.85
10,O=C(O)C(=O)O.Oc1ccc(Cl)cc1CNCC1CCCO1 (centres unmarked),1.35
11,CC1CCN(CCC(=O)N/N=C/c2ccc([N+](=O)[O-])cc2)CC1,-41.1
12,CCOC(=O)NS(=O)(=O)c1ccc(CCNC(=O)c2cc(C)on2)cc1,4.38
13,CCc1nnc(NC(=O)C2CCCN(c3nc4ccccc4s3)C2)s1 (centres unmarked),-1.41
14,Cc1ccccc1NC(=O)C(=O)NNC(=O)COc1ccc2ccccc2c1,10.8
15,COc1ccc(C(=O)N2CCN=C2SC)cc1,-1.26
16,S=C1NC(c2ccccc2)=CC(c2ccccc2)N1 (centres unmarked),8.01
17,CCOc1ccc(NC(=O)N2CCN(c3nc4ccccc4s3)CC2)cc1,17.5
18,CCOc1ccc(NC(=O)CN(C)C(=O)c2cc(S(=O)(=O)N3CCCCC3)ccc2Cl)cc1OCC,13.4
